Test results: US20260176259A1, “NITROGEN-CONTAINING HETEROCYCLIC COMPOUND” (Kyoto University, priority 2022, published 2026)
The name of at least one read-out is uncertain.

Each compound was assayed on GLA splicing reporter vector (GLA splicing: exon 4+exon 5 vs exon 4+pseudoexon+exon 5) (assay: GLA splicing reporter assay (GFP/RFP fluorescence ratio) in transfected HeLa cells). Settings: 10 μM evaluation compound, 0.1% DMSO, HeLa cell line, 16 hours after addition; GFP signal/RFP signal ratio, with ratio of 10 μM positive control 2-chloro-6-(2-furylmethyl)purine as 1.
Assay type: cell-based

First: COc1cccc2c(NCc3ccco3)nc(Cl)nc12 [Example 1, 2-Chloro-N-(furan-2-ylmethyl)-8-methoxyquinazolin-4-amine]
Second: COc1cccc2c(NCc3ccco3)nc(Br)nc12 [Example 5, 2-Bromo-N-(furan-2-ylmethyl)-8-methoxyquinazolin-4-amine]
The GLA_Signal_REC_10_2 of the first is lower: 1.48 for the first, 1.8 for the second.

Going from COc1cccc2c(NCc3ccco3)cc(Cl)nc12 [Example 2, 2-Chloro-N-(furan-2-ylmethyl)-8-methoxyquinolin-4-amine] to COc1ccc(F)c2c(NCc3ccco3)nc(Cl)nc12 [Example 4, 2-Chloro-5-fluoro-N-(furan-2-ylmethyl)-8-methoxyquinazolin-4-amine], the GLA_Signal_REC_10_2 falls from 2.91 to 1.63.

First: COc1c(F)ccc2c(NCc3ccco3)nc(Cl)nc12 [Example 3, 2-Chloro-7-fluoro-N-(furan-2-ylmethyl)-8-methoxyquinazolin-4-amine]
Second: COc1ccc2c(NCc3ccco3)nc(Cl)nc2c1OC [Example 11, 2-chloro-N-(furan-2-ylmethyl)-7,8-dimethoxyquinazolin-4-amine]
The GLA_Signal_REC_10_2 of the first is higher: 2.15 for the first, 1.04 for the second.

Going from COc1nccc2c(NCc3ccco3)nc(Cl)nc12 [Example 6, 2-Chloro-N-(furan-2-ylmethyl)-8-methoxypyrido[3,4-d]pyrimidin-4-amine] to COc1ccnc2c(NCc3ccco3)nc(Cl)nc12 [Example 8, 2-Chloro-N-(furan-2-ylmethyl)-8-methoxypyrido[3,2-d]pyrimidin-4-amine], the GLA_Signal_REC_10_2 falls from 3.92 to 2.6.

Going from COc1cncc2c(NCc3ccco3)nc(Cl)nc12 [Example 7, 2-Chloro-N-(furan-2-ylmethyl)-8-methoxypyrido[4,3-d]pyrimidin-4-amine] to COc1cc(F)cc2c(NCc3ccco3)nc(Cl)nc12 [Example 9, 2-chloro-6-fluoro-N-(furan-2-ylmethyl)-8-methoxyquinazolin-4-amine], the GLA_Signal_REC_10_2 falls from 3.13 to 1.24.

Going from COc1cc(OC)c2nc(Cl)nc(NCc3ccco3)c2c1 [Example 10, 2-chloro-N-(furan-2-ylmethyl)-6,8-dimethoxyquinazolin-4-amine] to COc1cccc2c(NCc3ncco3)nc(Cl)nc12 [Example 14, 2-chloro-8-methoxy-N-(1,3-oxazol-2-ylmethyl)quinazolin-4-amine], the GLA_Signal_REC_10_2 rises from 1.16 to 2.24.

First: COc1cccc2c(NCc3cccs3)nc(Cl)nc12 [Example 12, 2-chloro-8-methoxy-N-(thiophen-2-ylmethyl)quinazolin-4-amine]
Second: COc1cccc2c(NCc3ccsc3)nc(Cl)nc12 [Example 15, 2-chloro-8-methoxy-N-(thiophen-3-ylmethyl)quinazolin-4-amine]
The GLA_Signal_REC_10_2 of the first is lower: 1.75 for the first, 1.81 for the second.

Compared with COc1cccc2c(NCc3nccs3)nc(Cl)nc12 [Example 13, 2-chloro-8-methoxy-N-(1,3-thiazol-2-ylmethyl)quinazolin-4-amine], COc1cccc2c(NCc3ccncc3)nc(Cl)nc12 [Example 16, 2-chloro-8-methoxy-N-(pyridin-4-ylmethyl)quinazolin-4-amine] is lower in GLA_Signal_REC_10_2: 1.08 for the first, 0.97 for the second.

Compared with COc1cccc2c(NCc3ccccc3F)nc(Cl)nc12 [Example 17, 2-chloro-N-(2-fluorobenzyl)-8-methoxyquinazolin-4-amine], O=C1NCC(COc2cccc3c(NCc4ccco4)nc(Cl)nc23)O1 (centres unmarked) [Example 19, 5-[({2-Chloro-4-[(furan-2-ylmethyl)amino]quinazolin-8-yl}oxy)methyl]-1,3-oxazolidin-2-one] is higher in GLA_Signal_REC_10_2: 1.13 for the first, 6.87 for the second.

Going from Clc1nc(NCc2ccco2)c2cccc(OCC3COCCO3)c2n1 (centres unmarked) [Example 18, 2-Chloro-8-(1,4-dioxan-2-ylmethoxy)-N-(furan-2-ylmethyl)quinazolin-4-amine] to O=C1NC[C@H](COc2cccc3c(NCc4ccco4)nc(Cl)nc23)O1 [Example 20, (5R)-5-[({2-Chloro-4-[(furan-2-ylmethyl)amino]quinazolin-8-yl}oxy)methyl]-1,3-oxazolidin-2-one], the GLA_Signal_REC_10_2 rises from 4.32 to 4.5.
